In the experiment the test system is Trichoderma virens ATCC 9645. The experiment is described as follows: growth yield (OD600) relative to untreated control; higher = less growth inhibition. Particulars: compound concentration: 100 uM. Put shortly:
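A biocide at 200 ng ml^−1 was co-applied to some wells, and library compounds were present in all test wells at 100 μM final. The wells held 100 μl of Trichoderma virens ATCC 9645 spores at 15,000 spores ml^−1 in potato dextrose broth, grown at 30 °C in 96-well plates, with OD600 read at 40 h and 72 h. Results are relative growth against the control without either agent, averaged across duplicate screens.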

Counter-ions that a name gives are not always drawn. ± gives the standard error. Among all 1,300 compounds or so, about 75 (6%) showed an effect of 50% or more. The list shows a part of the results.

Take `CCN(CC)CCOC(=O)C(c1ccccc1)c1ccccc1` [Adiphenine hydrochloride]: the growth yield was 98.8 ± 7.6% (40 h) and 96.9 ± 5.5% (72 h).
The like results for `C[C@]12CC[C@@H]3c4ccc(OS(=O)(=O)O)cc4CC[C@H]3[C@@H]1CCC2=O` [Estropipate] were, in that order, 93.9 ± 2.1% and 91.87 ± 0.42%.
As to `COc1cccc(OC)c1C(=O)N[C@@H]1C(=O)N2[C@@H]1SC(C)(C)[C@@H]2C(=O)O` [Methicillin sodium], the growth yield was found to be 110 ± 2.1% (40 h) and 104 ± 1.8% (72 h).
Take `Cc1ccc(S(=O)(=O)NC(=O)NN2CCCCCC2)cc1` [Tolazamide]: the growth yield reads like this: (40 h) 101 ± 2.2%; (72 h) 103 ± 1.4%.
On to `Nc1ccc(S(=O)(=O)Nc2ccccn2)cc1` [Sulfapyridine], for which the growth yield came to 98.6 ± 3% (40 h) and 97.7 ± 2.5% (72 h).
Turning to `Nc1ccn([C@@H]2O[C@H](CO)[C@@H](O)[C@@H]2O)c(=O)n1` [Cytarabine], the growth yield was 96.9% (40 h) and 99.84 ± 0.84% (72 h).
As to `COc1ccnc(C[S+]([O-])c2nc3cc(OC(F)F)ccc3[nH]2)c1OC` (stereo unspecified) [Pantoprazole sodium], the growth yield by setting is: (40 h) 88.2 ± 6.2%; (72 h) 94 ± 3.8%.
Turning to `C[C@@H]1C[C@H]2[C@@H]3C[C@H](F)C4=CC(=O)C=C[C@]4(C)[C@@]3(F)[C@@H](O)C[C@]2(C)[C@@]1(O)C(=O)COC(=O)C(C)(C)C` [Flumethasone pivalate], the growth yield runs as follows: (40 h) 106 ± 7.2%; (72 h) 104 ± 5.3%.
On to `CCOc1ccccc1OC(c1ccccc1)C1CNCCO1` (stereo unspecified) [Reboxetine mesylate], for which the growth yield runs as follows: (40 h) 99 ± 3.6%; (72 h) 98 ± 4.6%.
As to `CN(C)CCCN1c2ccccc2Sc2ccc(Cl)cc21` [Chlorpromazine hydrochloride], the growth yield came out at 68.8 ± 2.1% (40 h) and 86.52 ± 0.32% (72 h).
The corresponding values for `COc1ccc(CC2c3cc(OC)c(OC)cc3CC[N+]2(C)CCC(=O)OCCCCCOC(=O)CC[N+]2(C)CCc3cc(OC)c(OC)cc3C2Cc2ccc(OC)c(OC)c2)cc1OC` (stereo unspecified) [Atracurium besylate] are 102 ± 4% and 98.7 ± 3.5%.
As for `CC(=O)[C@H]1CC[C@H]2[C@@H]3CC=C4C[C@@H](O)CC[C@]4(C)[C@H]3CC[C@]12C` [Pregnenolone], the growth yield runs as follows: (40 h) 93.6 ± 2.7%; (72 h) 94.9 ± 2%.
The like results for `CCN(CCO)CCCC(C)Nc1ccnc2cc(Cl)ccc12` (stereo unspecified) [Hydroxychloroquine sulfate] were, in that order, 108 ± 6.2% and 108 ± 5.2%.
For `CCCCN1CCCCC1C(=O)Nc1c(C)cccc1C` (stereo unspecified) [Bupivacaine hydrochloride], the growth yield is, setting by setting: (40 h) 102 ± 1.3%; (72 h) 103 ± 1.3%.
For the compound `CCOC(=O)NNc1nncc2ccccc12` [Todralazine hydrochloride], the growth yield worked out at 99.6 ± 3% (40 h) and 94.39 ± 0.21% (72 h).
As for `CC(C)(C)c1ccc(C(O)CCCN2CCC(C(O)(c3ccccc3)c3ccccc3)CC2)cc1` (stereo unspecified) [Terfenadine], the growth yield was 90.2% (40 h) and 96.9% (72 h).
As for `CC(COc1ccccc1)NC(C)C(O)c1ccc(O)cc1` (stereo unspecified) [Isoxsuprine hydrochloride], the growth yield was determined as 101 ± 1.1% (40 h) and 98.6 ± 2.3% (72 h).
With `O=c1cc(-c2ccc(O)c(O)c2)oc2cc(O)cc(O)c12` [Luteolin], the growth yield (40 h) was determined as 100 ± 4.8% and the growth yield (72 h) was 97 ± 4.5%.
The like results for `CC(C)(C(=O)c1cccnc1)c1cccnc1` [Metyrapone] were, in that order, 91 ± 3% and 88.4 ± 2.6%.
Take `CC(C)(S)C(N)C(=O)O` (racemic) [D,L-Penicillamine]: the growth yield by setting is: (40 h) 95 ± 3.2%; (72 h) 94.39 ± 0.84%.
The corresponding values for `CC(=O)N(O)CCCCCNC(=O)CCC(=O)N(O)CCCCCNC(=O)CCC(=O)N(O)CCCCCN` [Deferoxamine mesylate] are 106 ± 4.8% and 104 ± 3.2%.
For `O=C1Cc2cc(CCN3CCN(c4nsc5ccccc45)CC3)c(Cl)cc2N1` [Ziprasidone  Hydrochloride], the growth yield runs as follows: (40 h) 107 ± 2.1%; (72 h) 109 ± 2.9%.
As for `CC(C)/N=c1\cc2n(-c3ccc(Cl)cc3)c3ccccc3nc-2cc1Nc1ccc(Cl)cc1` [Clofazimine], the growth yield (40 h) was determined as 90.1 ± 3.3% and the growth yield (72 h) worked out at 116 ± 8.6%.
The like results for `CCN[C@H]1C[C@H](C)S(=O)(=O)c2sc(S(N)(=O)=O)cc21` [Dorzolamide hydrochloride] were, in that order, 99.3 ± 5.6% and 92.7 ± 6.7%.
For `CO[C@@]1(NC(=O)CSCC#N)C(=O)N2C(C(=O)O)=C(CSc3nnnn3C)CS[C@@H]21` [Cefmetazole sodium salt], the growth yield is, setting by setting: (40 h) 99 ± 4.6%; (72 h) 95.1 ± 4.3%.
Take `C[C@@H]1[C@H](O)[C@@H](C)/C=C/C=C/C=C/C=C/C=C/C=C/C=C/[C@H](O[C@@H]2O[C@H](C)[C@@H](O)[C@H](N)[C@@H]2O)C[C@@H]2O[C@](O)(C[C@@H](O)C[C@@H](O)[C@H](O)CC[C@@H](O)C[C@@H](O)CC(=O)O[C@H]1C)C[C@H](O)[C@H]2C(=O)O` [Amphotericin B]: the growth yield by setting is: (40 h) 132%; (72 h) 118%.
As to `CCOC(=O)C(C)(C)Oc1ccc(Cl)cc1` [Clofibrate], the growth yield (40 h) was determined as 92.3 ± 1.1% and the growth yield (72 h) worked out at 93.3 ± 2.5%.
Consider `CC(C)NC[C@H](O)COc1ccc(CC(N)=O)cc1` [(S)-(-)-Atenolol], for which the growth yield runs as follows: (40 h) 100 ± 1.6%; (72 h) 101 ± 1.5%.
`CCC(Cc1c(I)cc(I)c(N)c1I)C(=O)O` (stereo unspecified) [Iopanoic acid]: the growth yield turned out to be 116 ± 3.2% (40 h) and 108 ± 3% (72 h).
`CCC(NC(C)C)C(O)c1ccc(O)c(O)c1` (stereo unspecified) [Isoetharine mesylate salt]: the growth yield reads like this: (40 h) 100.9 ± 0.48%; (72 h) 94.7 ± 0.52%.
The like results for `CN1CCc2cccc3c2[C@H]1Cc1ccc(O)c(O)c1-3` [R(-) Apomorphine hydrochloride hemihydrate] were, in that order, 86.4 ± 4.5% and 86.1 ± 4.9%.
The like results for `CN1CCN(C2=Nc3cc(Cl)ccc3Nc3ccccc32)CC1` [Clozapine] were, in that order, 102 ± 2.4% and 104.77 ± 0.1%.
The like results for `C[C@@H]1NC(=O)NC1=O` [Methylhydantoin-5-(L)] were, in that order, 106 ± 7.9% and 101 ± 4.2%.

The record behind these values is the supplement of paper PMC8007513.
